Source: the antibiotic and cytotoxicity screens of Wong et al. (2023)
Some of the results follow.

Each compound was assayed on S. aureus RN4220 (assay: growth inhibition call (relative growth <= 0.2)). Settings: 50 µM.

Growth inhibition call, inactive:
Cc1noc(C)c1NC(=O)N(C)C[C@@H]1Oc2ccc(NC(=O)CCN3CCOCC3)cc2CC(=O)N([C@@H](C)CO)C[C@H]1C, C[C@H](CO)N1C[C@H](C)[C@@H](CN(C)Cc2ccncc2)OCCCC[C@H](C)Oc2ccc(NC(=O)Cc3ccccc3)cc2C1=O, O=c1cc[nH]c(=O)[nH]1, COc1ccc(C#Cc2cnc3c(c2)C(=O)N([C@H](C)CO)C[C@H](C)[C@H](CN(C)C(=O)NC(C)C)O3)cc1OC, C[C@@H]1CN([C@H](C)CO)C(=O)c2cc(NC(=O)CCC(F)(F)F)ccc2O[C@@H]1CN(C)Cc1ccc(-c2ccccc2)cc1, CN(C)Cc1cn(CC[C@H]2CC[C@H](N)[C@@H](CO)O2)nn1, C[C@@H]1CN([C@@H](C)CO)C(=O)Cc2cc(NS(=O)(=O)c3cn(C)cn3)ccc2O[C@H]1CN(C)Cc1ccc2c(c1)OCO2, C[C@@H]1CCCCO[C@@H](CN(C)Cc2ccccc2)[C@H](C)CN([C@@H](C)CO)C(=O)c2cc(NC(=O)c3ccncc3)ccc2O1, C[C@H]1CN([C@@H](C)CO)C(=O)c2cc(NC(=O)Nc3ccc4c(c3)OCO4)ccc2O[C@@H]1CN(C)C(=O)Nc1ccc(C(F)(F)F)cc1, COc1ccc(S(=O)(=O)Nc2ccc3c(c2)CC(=O)N([C@@H](C)CO)C[C@H](C)[C@H](CN(C)S(=O)(=O)c2ccc(OC)cc2)O3)cc1
